Molecular target: T1, human B7-1 expressed on transfected human fibroblasts (human, UniProt P33681 35-288)
T1 construct: whole, on cells; also called CD80
T1 sequence (looked up): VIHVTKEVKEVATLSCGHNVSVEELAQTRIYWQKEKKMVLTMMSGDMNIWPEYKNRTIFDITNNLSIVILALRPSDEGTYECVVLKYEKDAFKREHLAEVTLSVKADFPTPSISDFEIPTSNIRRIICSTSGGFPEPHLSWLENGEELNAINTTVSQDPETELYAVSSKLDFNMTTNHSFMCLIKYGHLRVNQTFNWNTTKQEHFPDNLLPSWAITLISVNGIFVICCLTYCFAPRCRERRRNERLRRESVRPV
Assay: flow cytometry on human fibroblasts transfected with human B7-1
Description: The binding characteristics of pCTLA4-Ig were compared to those of human CTLA4-Ig using flow cytometric analysis with human fibroblasts transfected with either human B7-1 or porcine B7-2. For these experiments, the concentration of pig and human CTLA4-Ig were equivalent as assessed by ELISA.

binding result: no binding
B1: pCTLA4-Ig (extracellular domain of porcine CTLA-4 fused through the linker GGSGGAA to hinge, CH2 and CH3 of human IgG1) (Fc fusion)
chain: KGMHVAQPAVVLANSRGVASFVCEYGSAGKAAEVRVTVLRRAGSQMTEVCAATYTVEDELTFLDDSTCTGTSTENKVNLTIQGLRAVDTGLYICKVELLYPPPYYVGMGNGTQIYVIDPEPCPDSDGGSGGAA[letters of human IgG1 Fc left out]
notes: It may still carry the signal peptide, because the 5' primer starts at the ATG; Expressed in DAP.3 or CHO-K1 cells and purified on protein G; also called porcine CTLA4-Ig; soluble pCTLA4-Ig

From patent US7432344 (IMPERIAL COLLEGE INNOVATIONS, dated 2008)
